Consider 153 variants from a collection of fitness landscapes (doi:10.1126/science.1257360).

Some of the results follow. Some results are limits rather than exact numbers.

First the molecules themselves.
B1: PhoQ; a variant is named by its letters at X, in order, P23837 (parent)
chain: MKKLLRLFFPLSLRVRFLLATAAVVLVLSLAYGMVALIGYSVSFDKTTFRLLRGESNLFYTLAKWENNKLHVELPENIDKQSPTMTLIYDENGQLLWAQRDVPWLMKMIQPDWLKSNGFHEIEADVNDTSLLLSGDHSIQQQLQEVREDDDDAEMTHSVAVNVYPATSRMPKLTIVVVDTIPVELKSSYMVWSWFIYVLSANLLLVIPLLWVAAWWSLRPIEALAKEVRELEEHNRELLNPATTRELTSLVRNLNRLLKSERERYDKYRTTLTDLTHSLKTPLXXLQXXLRSLRSEKMSVSDAEPVMLEQISRISQQIGYYLHRASMRGGTLLSRELHPVAPLLDNLTSALNKVYQRKGVNISLDISPEISFVGEQNDFVEVMGNVLDNACKYCLEFVEISARQTDEHLYIVVEDDGPGIPLSKREVIFDRGQRVDTLRPGQGVGLAVAREITEQYEGKIVAGESMLGGARMEVIFGRQHSAPKDE

In this assay the parent is B1. In words: enrichment ratio after two sorts for PhoP signalling (ratio (wild type AVST 3.29)); higher = more functional. Conditions: with PhoP (E. coli).
MTIW: the enrichment ratio is ≤ 0.25.

Consider WLWN, for which the enrichment ratio was ≤ 0.25. On to RCHY, for which the enrichment ratio was ≤ 0.25. For the variant WTFD, the enrichment ratio was ≤ 0.25. For HTLK, the enrichment ratio was ≤ 0.25. As to TYHL, the enrichment ratio amounted to 7.82. Turning to QLNK, the enrichment ratio is ≤ 0.25. PWTI: the enrichment ratio is ≤ 0.25. For the variant FYLS, the enrichment ratio was ≤ 0.25. Then PQFG, with ≤ 0.25; and VAVR, with ≤ 0.25.

For HGIP, the enrichment ratio was ≤ 0.25. Then IYDE, with ≤ 0.25; and AATE, with ≤ 0.25; and FGLV, with 11.7. Take MDGI: the enrichment ratio was ≤ 0.25. With TWWL, the enrichment ratio was ≤ 0.25. NFCY: the enrichment ratio is ≤ 0.25.

Consider IIPI, for which the enrichment ratio was ≤ 0.25. In the case of IYNW, the enrichment ratio was ≤ 0.25. With QIMY the figure was ≤ 0.25. In the case of KQTC, the enrichment ratio was ≤ 0.25. On to MMIN, for which the enrichment ratio is ≤ 0.25. As for MEHE, the enrichment ratio was ≤ 0.25.

For the variant VCNV, the enrichment ratio is ≤ 0.25. Consider MRVA, for which the enrichment ratio was ≤ 0.25. MVTF: the enrichment ratio was 0.928. As to MVMD, the enrichment ratio was ≤ 0.25. Then EIVL, with ≤ 0.25; and IRSM, with ≤ 0.25; and KCMY, with ≤ 0.25.

As for SKGT, the enrichment ratio was ≤ 0.25. Consider QSIM, for which the enrichment ratio is ≤ 0.25.

As for NLHY, the enrichment ratio was ≤ 0.25.

Regarding KPQC, the enrichment ratio is ≤ 0.25. On to IAIG, for which the enrichment ratio was ≤ 0.25. HRDS: the enrichment ratio was ≤ 0.25. As to NNSV, the enrichment ratio was 0.781.

WTRE: the enrichment ratio is ≤ 0.25. As to MDFV, the enrichment ratio is ≤ 0.25. Then ICVC, with ≤ 0.25; and KAMC, with ≤ 0.25. As to VYCL, the enrichment ratio was ≤ 0.25. Turning to KVHC, the enrichment ratio was ≤ 0.25. Then KMDR, with ≤ 0.25; and RLVN, with ≤ 0.25. With IQIN the figure was ≤ 0.25.

On to PTKH, for which the enrichment ratio was ≤ 0.25.

As to GMYS, the enrichment ratio was ≤ 0.25. As to FSSQ, the enrichment ratio was ≤ 0.25.

Consider MCMK, for which the enrichment ratio stood at 9.59. As for FSMF, the enrichment ratio was determined as 2.43. As to LPEQ, the enrichment ratio is ≤ 0.25. On to NISI, for which the enrichment ratio is ≤ 0.25.

For PFTC, the enrichment ratio is ≤ 0.25. As to WHWF, the enrichment ratio is ≤ 0.25. As for INNP, the enrichment ratio was ≤ 0.25. With EFNL the figure was ≤ 0.25. Turning to KMSQ, the enrichment ratio is ≤ 0.25. Then LSHA, with ≤ 0.25. For ITGW, the enrichment ratio was ≤ 0.25. Turning to IFRC, the enrichment ratio is ≤ 0.25.

In the case of DIVI, the enrichment ratio was ≤ 0.25. As to MALM, the enrichment ratio worked out at 9.02. Then ERDA, with ≤ 0.25; and KLQH, with ≤ 0.25; and RPSC, with ≤ 0.25. As to LHGS, the enrichment ratio was ≤ 0.25. Regarding ESDG, the enrichment ratio was ≤ 0.25.

Turning to KMLF, the enrichment ratio is ≤ 0.25. With QVSQ the figure was ≤ 0.25; with VNYM, ≤ 0.25. As for ESHD, the enrichment ratio was ≤ 0.25. In the case of SCHC, the enrichment ratio was ≤ 0.25.

On to LFHV, for which the enrichment ratio is ≤ 0.25. As for HTWD, the enrichment ratio is ≤ 0.25. WFKY: the enrichment ratio was ≤ 0.25. For WWVT, the enrichment ratio is ≤ 0.25. In the case of GMAY, the enrichment ratio came to 7.02. Turning to NECI, the enrichment ratio came out at 3.8. GYEI: the enrichment ratio is ≤ 0.25. As to ANIS, the enrichment ratio was found to be 4.66. Take RQVH: the enrichment ratio is 0.289. With DTCG the figure was ≤ 0.25.

As for RTYC, the enrichment ratio was ≤ 0.25. For the variant QEYC, the enrichment ratio is ≤ 0.25.

Regarding QRRA, the enrichment ratio was ≤ 0.25. With FDEL the figure was ≤ 0.25; with VTWP, ≤ 0.25; with MKND, ≤ 0.25. As for ELPP, the enrichment ratio was ≤ 0.25. Turning to QHFL, the enrichment ratio is ≤ 0.25. In the case of MMQV, the enrichment ratio is ≤ 0.25. Consider PRNC, for which the enrichment ratio was ≤ 0.25. With PPFS, the enrichment ratio is ≤ 0.25. Then EDNQ, with ≤ 0.25; and DVTK, with ≤ 0.25. Turning to HAQH, the enrichment ratio is ≤ 0.25. For LRYN, the enrichment ratio is ≤ 0.25. As for MFRS, the enrichment ratio is ≤ 0.25. Take ESQY: the enrichment ratio is ≤ 0.25. As for FARH, the enrichment ratio is ≤ 0.25.

For the variant SEQW, the enrichment ratio was ≤ 0.25. Take WSMG: the enrichment ratio was ≤ 0.25. THAV: the enrichment ratio amounted to 4.11. Then MSKF, with ≤ 0.25; and KIEF, with ≤ 0.25. Then MGWG, with 0.67; and INTL, with ≤ 0.25; and FEAT, with ≤ 0.25.

As to SPFF, the enrichment ratio was ≤ 0.25.

As to DIGH, the enrichment ratio is ≤ 0.25. With GDLI the figure was 7.64. Then PIYE, with ≤ 0.25; and QGTY, with ≤ 0.25. For WRHM, the enrichment ratio is ≤ 0.25. As to TDAG, the enrichment ratio was found to be 2.68.

QIRA: the enrichment ratio was ≤ 0.25. In the case of GQAC, the enrichment ratio is ≤ 0.25.

With FFGE, the enrichment ratio is ≤ 0.25. Regarding HWAV, the enrichment ratio is ≤ 0.25. Take QEIY: the enrichment ratio is ≤ 0.25.

As for SPYC, the enrichment ratio was ≤ 0.25. Regarding LGNH, the enrichment ratio was ≤ 0.25. With GMPS the figure was ≤ 0.25; with VARM, ≤ 0.25; with YESF, ≤ 0.25. For the variant YHGW, the enrichment ratio was ≤ 0.25.

As to KMLH, the enrichment ratio was ≤ 0.25. Then FLTF, with ≤ 0.25; and VTRT, with ≤ 0.25. Turning to FVNT, the enrichment ratio was ≤ 0.25.

As for SIMR, the enrichment ratio worked out at 11.2. Turning to TTSD, the enrichment ratio was ≤ 0.25. With ANGH, the enrichment ratio stood at 11.6. As to APEW, the enrichment ratio is ≤ 0.25. Turning to MIDI, the enrichment ratio is ≤ 0.25. For the variant AFLA, the enrichment ratio is 6.5.

Consider WMYN, for which the enrichment ratio is ≤ 0.25. CKTS: the enrichment ratio is ≤ 0.25. Take RAKN: the enrichment ratio is ≤ 0.25. In the case of HHMC, the enrichment ratio is ≤ 0.25. Turning to MFKA, the enrichment ratio was ≤ 0.25.

Regarding FTSM, the enrichment ratio is 1.25. As for PVSG, the enrichment ratio was ≤ 0.25. Turning to QPPG, the enrichment ratio is ≤ 0.25. As for NRSP, the enrichment ratio was ≤ 0.25. Then MNDW, with ≤ 0.25; and KFIH, with ≤ 0.25; and QEGQ, with ≤ 0.25. As to SSYW, the enrichment ratio is ≤ 0.25. Take ILGP: the enrichment ratio was ≤ 0.25. On to LAPG, for which the enrichment ratio was ≤ 0.25.
